The whole screen tested about 150,000 compounds, of which about 540 (0.36%) showed an effect of 50% or more. The list shows a part of the results.
Each compound was assayed on Plasmodium falciparum (assay: Primary screen in NF54 nanoGlo assay, in single point, at 2uM, 72h; a lower Z score goes with more inhibition). Settings: timepoint 72 hour.
Type: functional, Erythrocyte
`COc1ccc(CN(CC(=O)Nc2ccc(C(N)=O)cc2)S(=O)(=O)c2cccnc2)cc1` was tested, and the “% Inhibition” value was 6% and the Z score was -0.84. `COc1ccc(-c2cn3c(C(=O)N4CCCCC4)csc3n2)cc1F` was tested, and the “% Inhibition” value was -20% and the Z score was 2.98. For `CO[C@H]1COCC[C@@H]1NC(=O)c1ccc(C#CC(C)(C)O)o1`, the “% Inhibition” value was 1% and the Z score was -0.19. In the case of `CCCCN(C)C(=O)NCCc1noc(C(C)C)n1`, the “% Inhibition” value is reported as 1% and the Z score is reported as -0.14. `Cc1nn(C)c(C)c1CNc1cc(C(C)(C)C)on1` was tested, and the “% Inhibition” value was -7% and the Z score was 0.66. For `O=C(O)C1CCN(C(=O)C2CC=CCC2c2nc3ccccc3s2)CC1` (stereo not given), the “% Inhibition” value was 0% and the Z score was 0.01. `COCCN(Cc1cn2ccc(C)cc2n1)Cc1ccc(C)s1` was tested, and the “% Inhibition” value was -9% and the Z score was 1.55. `Cc1ncsc1C(=O)OC1CCN(CC(F)F)CC1` was tested, and the “% Inhibition” value was -12% and the Z score was 1.47. With `CNC(=O)[C@@H]1CCCN1C(=O)CNC(=O)c1cccc2c1OCC2` the “% Inhibition” value was -5% and the Z score was 0.71. `CCc1noc(C)c1C(=O)Nc1ccc2c(c1)OCCCO2` was tested, and the “% Inhibition” value was -6% and the Z score was 0.93. With `CCc1nc(CNC(=O)N(C)Cc2ccnc(C)c2)no1` the “% Inhibition” value was -2% and the Z score was 0.38. In the case of `Cc1cnn([C@@H](C)CNc2ncnc3c2c(C)nn3C)c1`, the “% Inhibition” value is reported as 6% and the Z score is reported as -0.73. In the case of `C[C@@H]1CN(C(=O)c2c[nH]c3cccc(F)c23)C[C@H](C)N1CCO`, the “% Inhibition” value is reported as 1% and the Z score is reported as -0.14. With `CC(NC(=O)N1C[C@@H](CO)[C@H](C)C1)c1ccc(Br)cn1` (stereo not given in full) the “% Inhibition” value was -7% and the Z score was 0.86. `CC[C@H]1CN(S(=O)(=O)c2ccc3c(c2)C(=O)NCC3)c2ccccc2O1` was tested, and the “% Inhibition” value was -6% and the Z score was 0.69. `CN(C)c1ccc(NC(=O)c2ccc3c(c2)OCCO3)cn1` was tested, and the “% Inhibition” value was -13% and the Z score was 1.15. With `O=c1[nH]nc2ccc(S(=O)(=O)N3CCc4ccccc4C3)cn12` the “% Inhibition” value was -15% and the Z score was 1.73. For `O=S(=O)(Cc1ccccc1)N[C@@H]1COc2ccc(Br)cc2C1`, the “% Inhibition” value was -7% and the Z score was 0.93. For `CC(C)(CO)N1CCN(C(=O)c2ccc(CN3CCCC3)o2)CC1`, the “% Inhibition” value was -23% and the Z score was 3.56. `O=C(O)c1cccc(NC[C@H]2CN(Cc3ccccc3)CC23CCOCC3)n1` was tested, and the “% Inhibition” value was -21% and the Z score was 3.9. `Cc1nc(CNC(=O)c2cccc(S(=O)(=O)N3CCOCC3)c2)cs1` was tested, and the “% Inhibition” value was -6% and the Z score was 0.89. In the case of `C[C@H]1CN(C(=O)NCCS(=O)(=O)CCc2ccccc2)CCO1`, the “% Inhibition” value is reported as -14% and the Z score is reported as 1.38. `CC(C)=CCC[C@H](C)NCC(=O)N1CCOCC1` was tested, and the “% Inhibition” value was -1% and the Z score was 0.14. `COc1ccc(/N=C(\NC[C@H]2CCCO2)NC(=O)c2ccc(Cl)cc2)cc1OC` was tested, and the “% Inhibition” value was -7% and the Z score was 1.19. In the case of `Cc1ccccc1N1CCN(C(=O)CCC2CCN(c3cc(NC4CC4)ncn3)CC2)CC1`, the “% Inhibition” value is reported as 41% and the Z score is reported as -4.61. `CN1CCN(Cc2ccc(S(C)(=O)=O)cc2)C(C)(C)C1` was tested, and the “% Inhibition” value was -5% and the Z score was 0.91. `CC1(CO)CCCC1NC1Cc2ccccc2C1` (stereo not given) was tested, and the “% Inhibition” value was -11% and the Z score was 1.12. With `O=C(Cn1cc2ccccc2n1)N1CCC[C@H](N2CCN(c3ccccc3)CC2)C1` the “% Inhibition” value was -15% and the Z score was 2.08. In the case of `O=C(c1cn(Cc2cccc(Cl)c2)nn1)N1CCC[C@H](COc2cccc(F)c2)C1`, the “% Inhibition” value is reported as -12% and the Z score is reported as 1.52. With `CC(NC(=O)CC1CCCO1)c1ccc(-c2cccnc2)cc1` (stereo not given) the “% Inhibition” value was -2% and the Z score was 0.26. In the case of `CCn1ccnc1CN1CCc2[nH]cnc2[C@H]1c1ccc(OC)c(F)c1F`, the “% Inhibition” value is reported as -3% and the Z score is reported as 0.28. In the case of `Cc1nc(N2CCC[C@H]2C2CCOCC2)cc2nncn12`, the “% Inhibition” value is reported as -4% and the Z score is reported as 0.67. For `Cc1cc(C(=O)NCc2cc(-c3ccncc3)nn2C)c(C)o1`, the “% Inhibition” value was 0% and the Z score was -0.02. With `CC1CN(CCNCc2c[nH]nc2-c2cccs2)CC(C)O1` (stereo not given) the “% Inhibition” value was 0% and the Z score was 0.02. For `Cc1ccc(-n2nc3c(=O)n(CCCC(=O)N4CCOCC4)nc(C)c3c2C)cc1`, the “% Inhibition” value was 12% and the Z score was -1.42. `COc1ccccc1CNC(=O)c1nc[nH]c1C(=O)NCC1CC1` was tested, and the “% Inhibition” value was 10% and the Z score was -1.12. With `COc1ccc(C(=O)Nc2ccc(Br)c(C)n2)nn1` the “% Inhibition” value was -5% and the Z score was 0.92. For `CCn1c(=O)sc2cc(S(=O)(=O)N3CCC(C(=O)Nc4ccc(Cl)cc4C)CC3)ccc21`, the “% Inhibition” value was 0% and the Z score was 0.06. In the case of `COc1ccc(CNCCc2ccc(C)cc2)cc1OC[C@@H](O)CN1CCCCC1`, the “% Inhibition” value is reported as -10% and the Z score is reported as 0.87. For `O=C(c1ccsc1)N1CCN(C(=O)c2ccccc2Cl)CC1`, the “% Inhibition” value was 0% and the Z score was 0.01. For `Cc1nn(Cc2cc(F)ccc2OC(F)F)c(=O)s1`, the “% Inhibition” value was -14% and the Z score was 1.76. In the case of `O=C(c1n[nH]c2c1CCC2)N1CCC[C@H]1c1nc2ccccc2s1`, the “% Inhibition” value is reported as 10% and the Z score is reported as -1.43. In the case of `CC(=O)c1cc(C(=O)NCc2cccnc2N2CCN(C)CC2)c(=O)[nH]c1C`, the “% Inhibition” value is reported as 4% and the Z score is reported as -0.52. For `CNC(=O)NC(=O)COc1c(Br)cccc1Br`, the “% Inhibition” value was -14% and the Z score was 2.45. In the case of `CC(C)C(=O)Nc1ccc(N2CCN(Cc3ccccc3)C2=O)nc1`, the “% Inhibition” value is reported as -12% and the Z score is reported as 1.34. For `CCCN1C=NS(=O)(=O)c2cc(C(=O)Nc3cccc4ccccc34)ccc21`, the “% Inhibition” value was -5% and the Z score was 0.84. With `O=C(O)c1ccc(C(=O)N(Cc2ccccc2)CC2CCOCC2)c(F)c1` the “% Inhibition” value was 32% and the Z score was -3.62. `CCc1cccc(OC[C@@H](O)Cn2c(N3CCOCC3)nc3c2c(=O)[nH]c(=O)n3C)c1` was tested, and the “% Inhibition” value was -1% and the Z score was 0.1. With `CCc1ccc(Cn2nc(C3CCCC3)nc2-c2c[nH]c(=O)[nH]c2=O)cc1` the “% Inhibition” value was -10% and the Z score was 1.88. `COCn1nccc1S(=O)(=O)NCc1cc(C(F)(F)F)[nH]n1` was tested, and the “% Inhibition” value was -7% and the Z score was 0.93. With `Cc1cccc(C)c1OCC(=O)c1ccc2c(c1)N(CC(=O)N1CCCCC1)C(=O)CO2` the “% Inhibition” value was -4% and the Z score was 0.47. In the case of `CC[C@H](C)n1nc(C(=O)N2CCN(c3ccc(F)cn3)CC2)cc1C`, the “% Inhibition” value is reported as -10% and the Z score is reported as 1.39. With `CC(NC(=O)C1CC(=O)N(C)C1)c1cccc(-n2cccn2)c1` (stereo not given) the “% Inhibition” value was 0% and the Z score was 0.01. For `Cc1cc(F)cc(S(=O)(=O)N2CC(N(C)C)C2)c1`, the “% Inhibition” value was -7% and the Z score was 1.06. In the case of `CC(C)N1CCC(N(C)S(=O)(=O)CC[C@H]2CCCO2)CC1`, the “% Inhibition” value is reported as 4% and the Z score is reported as -0.58. With `CNC(=O)c1ccc(OC)c(-c2ccc(NCCN3CCOCC3)nc2)c1` the “% Inhibition” value was -7% and the Z score was 1.05. For `COc1nccnc1N1C[C@H]2CC[C@@H](C1)N(CC=C(C)C)C2=O`, the “% Inhibition” value was -11% and the Z score was 2.11. With `N#Cc1cccc(C(=O)Nc2cccc3[nH]cnc23)c1` the “% Inhibition” value was -13% and the Z score was 1.75. In the case of `CC[C@H](NC(=O)N(C)Cc1ccsc1)c1ccc(S(C)(=O)=O)cc1`, the “% Inhibition” value is reported as 11% and the Z score is reported as -1.33. In the case of `Cc1csc(-c2nc3ccccc3[nH]c2=O)n1`, the “% Inhibition” value is reported as -14% and the Z score is reported as 1.98. For `C[C@H]1CC(c2ccc(F)cc2)=Nc2ccccc2N1`, the “% Inhibition” value was -1% and the Z score was 0.07. For `Cc1noc(C)c1CCC(=O)Nc1ccc(N2CCCC2)c2ncccc12`, the “% Inhibition” value was -13% and the Z score was 1.23. For `O=C(C1CCOCC1)N1CCO[C@@H](Cc2ccccc2Cl)C1`, the “% Inhibition” value was 4% and the Z score was -0.69. For `CC1=C(C(=O)NCc2cccc(N3CCCC3)c2)[C@H](C)NC(=O)N1`, the “% Inhibition” value was 1% and the Z score was -0.24. `Cc1n[nH]cc1CNc1cccc(CNC(=O)OC(C)(C)C)c1` was tested, and the “% Inhibition” value was -6% and the Z score was 0.91. In the case of `CN(C)C1CCCC1Oc1ncnc2sccc12` (stereo not given), the “% Inhibition” value is reported as -9% and the Z score is reported as 1.16. For `Cc1ccc(NS(=O)(=O)c2cc(C(=O)N3CCC(Cc4ccccc4)CC3)ccc2Cl)c(C)c1`, the “% Inhibition” value was -17% and the Z score was 1.9. In the case of `COc1ccc(C(=O)N2CC(C(=O)N3CCCCC3)C(c3cc(OC)c(OC)c(OC)c3)C2)cc1` (stereo not given), the “% Inhibition” value is reported as -12% and the Z score is reported as 2.14. With `Cc1ccsc1S(=O)(=O)N1CCC[C@H](CCO)CC1` the “% Inhibition” value was -4% and the Z score was 0.68. With `COc1c(C)cc(-c2ccc3nc(-c4cccc(F)c4)oc3c2)cc1C` the “% Inhibition” value was -7% and the Z score was 0.96. `N#Cc1ccc(OC[C@@H](O)Cn2cc(CNC3CCCC3)nn2)cc1` was tested, and the “% Inhibition” value was -17% and the Z score was 2.02. `COc1ccc(CN2CCNC(=O)[C@@H]2CC(=O)NCc2cc(C(C)(C)C)[nH]n2)c(C)c1C` was tested, and the “% Inhibition” value was -14% and the Z score was 2.14. With `CC1(C)CC(Cc2noc(C3(S(C)(=O)=O)CCCC3)n2)C1` the “% Inhibition” value was 0% and the Z score was -0.08. In the case of `CCc1csc(NCc2[nH]nc(C)c2C)n1`, the “% Inhibition” value is reported as -4% and the Z score is reported as 0.56. In the case of `O=C(c1onc2c1CCCC2)N1CCO[C@@H](CO)C1`, the “% Inhibition” value is reported as -3% and the Z score is reported as 0.54. In the case of `O=C(c1cc2ccccc2c(=O)[nH]1)N1CCC[C@H](C(F)(F)F)C1`, the “% Inhibition” value is reported as -24% and the Z score is reported as 2.76. With `O=C1\N=C(c2ccc(Cl)cc2)/N=N\C(c2ccc(Cl)cc2)=N/[C@]1(O)C(F)(F)F` the “% Inhibition” value was 35% and the Z score was -4.53. With `CC(C)(O)Cc1ccc(N)cc1-c1ccc2nonc2c1` the “% Inhibition” value was 8% and the Z score was -0.95. In the case of `O=C1CC(C2CCCO2)C(=O)N1c1ccccc1` (stereo not given), the “% Inhibition” value is reported as 2% and the Z score is reported as -0.23. In the case of `CC(C)Oc1cccc(F)c1-c1cnc2nn[nH]c2c1`, the “% Inhibition” value is reported as 9% and the Z score is reported as -1.2. `CN(C(=O)N1CCC(c2c(F)cccc2F)CC1)[C@H]1CCS(=O)(=O)C1` was tested, and the “% Inhibition” value was -15% and the Z score was 1.3. For `Cc1cnc(CNC[C@H](O)c2ccccn2)nc1`, the “% Inhibition” value was -9% and the Z score was 1.09. `CC(C)c1csc(CCNC(=O)N2CCCC[C@@H]2CN)n1` was tested, and the “% Inhibition” value was -4% and the Z score was 0.79. For `O=C(c1ccco1)N1CC(C(=O)N2CCCC2)C(c2ccc(F)cc2)C1` (stereo not given), the “% Inhibition” value was -8% and the Z score was 0.92. In the case of `CC(C)(C)c1cnc(CN[C@H](C(N)=O)C(C)(C)C)o1`, the “% Inhibition” value is reported as -9% and the Z score is reported as 0.79.

Source: ChEMBL document CHEMBL4888484, “Replenishing the malaria drug discovery pipeline: Screening and hit evaluation of the MMV Hit Generation Library 1 (HGL1) against asexual blood stage Plasmodium falciparum ,using a nano luciferase reporter read-out” (2022)
